# In the supplement of paper PMC8728848:
# Some of the results follow.
# B1: SSR2 (Sclerotium rolfsii) (protein)
# chain: MVYKITVRVYQTNPDAFFHPVEKTVWKYANGGTWSITDDQHVLTMGGSGTSGTLRFHADNGESFTATFGVHNYKRWCDIVTNLAADETGMVINQQYYSQKNREEARERQLSNYQVKNAKGRNFQIVYTEAEGNDLHANLIIG
# What was measured:
# Assay in all cases: glycan array binding signal (z-score within array); higher = stronger binding
# Conditions in all cases: glycan notation: IUPAC condensed, linker removed
# [1] = molecular target: GlcNAc(b1-3)Gal(b1-3)GalNAc
# How it was run: (§1)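 Glycan array data came from 3228 arrays in the Consortium for Functional Glycomics database, and only arrays with an available protein sequence were kept. Glycan names were put into IUPAC-condensed notation, and columns mapping to the same glycan were averaged. The binding signal is a within-array Z-score, averaged across arrays of one protein sequence run at different concentrations or buffers and across linkers. A negative Z-score can be read as non-binding.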
# GlcNAc(b1-3)Gal(b1-4)Glc = molecular target: GlcNAc(b1-3)Gal(b1-4)Glc
# How it was run: as §1
# [2] = molecular target: GlcNAc(b1-3)Gal(b1-4)GlcNAc
# How it was run: as §1
# [3] = molecular target: GlcNAc(b1-3)Gal(b1-4)GlcNAc(b1-2)Man(a1-3)[GlcNAc(b1-3)Gal(b1-4)GlcNAc(b1-2)Man(a1-6)]Man(b1-4)GlcNAc(b1-4)GlcNAc
# How it was run: as §1
# [4] = molecular target: GlcNAc(b1-3)Gal(b1-4)GlcNAc(b1-2)Man(a1-3)[GlcNAc(b1-3)Gal(b1-4)GlcNAc(b1-2)Man(a1-6)]Man(b1-4)GlcNAc(b1-4)[Fuc(a1-6)]GlcNAc
# How it was run: as §1
# [5] = molecular target: GlcNAc(b1-3)Gal(b1-4)GlcNAc(b1-2)[GlcNAc(b1-3)Gal(b1-4)GlcNAc(b1-6)]Man(a1-6)[GlcNAc(b1-3)Gal(b1-4)GlcNAc(b1-2)Man(a1-3)]Man(b1-4)GlcNAc(b1-4)GlcNAc
# How it was run: as §1
# [6] = molecular target: GlcNAc(b1-3)Gal(b1-4)GlcNAc(b1-3)Gal(b1-4)GlcNAc
# How it was run: as §1
# [7] = molecular target: GlcNAc(b1-3)Gal(b1-4)GlcNAc(b1-3)Gal(b1-4)GlcNAc(b1-2)Man(a1-3)[GlcNAc(b1-3)Gal(b1-4)GlcNAc(b1-3)Gal(b1-4)GlcNAc(b1-2)Man(a1-6)]Man(b1-4)GlcNAc(b1-4)GlcNAc
# How it was run: as §1
# [8] = molecular target: GlcNAc(b1-3)Gal(b1-4)GlcNAc(b1-3)Gal(b1-4)GlcNAc(b1-2)Man(a1-3)[GlcNAc(b1-3)Gal(b1-4)GlcNAc(b1-3)Gal(b1-4)GlcNAc(b1-2)Man(a1-6)]Man(b1-4)GlcNAc(b1-4)[Fuc(a1-6)]GlcNAc
# How it was run: as §1
# [9] = molecular target: GlcNAc(b1-3)Gal(b1-4)GlcNAc(b1-3)Gal(b1-4)GlcNAc(b1-2)[GlcNAc(b1-3)Gal(b1-4)GlcNAc(b1-3)Gal(b1-4)GlcNAc(b1-6)]Man(a1-6)[GlcNAc(b1-3)Gal(b1-4)GlcNAc(b1-3)Gal(b1-4)GlcNAc(b1-2)Man(a1-3)]Man(b1-4)GlcNAc(b1-4)[Fuc(a1-6)]GlcNAc
# How it was run: as §1
# [10] = molecular target: GlcNAc(b1-3)Gal(b1-4)GlcNAc(b1-3)Gal(b1-4)GlcNAc(b1-3)Gal(b1-4)GlcNAc(b1-2)Man(a1-3)[GlcNAc(b1-3)Gal(b1-4)GlcNAc(b1-3)Gal(b1-4)GlcNAc(b1-3)Gal(b1-4)GlcNAc(b1-2)Man(a1-6)]Man(b1-4)GlcNAc(b1-4)GlcNAc
# How it was run: as §1
# [11] = molecular target: GlcNAc(b1-3)Gal(b1-4)GlcNAc(b1-3)Gal(b1-4)GlcNAc(b1-3)Gal(b1-4)GlcNAc(b1-2)Man(a1-3)[GlcNAc(b1-3)Gal(b1-4)GlcNAc(b1-3)Gal(b1-4)GlcNAc(b1-3)Gal(b1-4)GlcNAc(b1-2)Man(a1-6)]Man(b1-4)GlcNAc(b1-4)[Fuc(a1-6)]GlcNAc
# How it was run: as §1
# [12] = molecular target: GlcNAc(b1-3)Gal(b1-4)GlcNAc(b1-3)Gal(b1-4)GlcNAc(b1-3)Gal(b1-4)GlcNAc(b1-2)[GlcNAc(b1-3)Gal(b1-4)GlcNAc(b1-3)Gal(b1-4)GlcNAc(b1-3)Gal(b1-4)GlcNAc(b1-6)]Man(a1-6)[GlcNAc(b1-3)Gal(b1-4)GlcNAc(b1-3)Gal(b1-4)GlcNAc(b1-3)Gal(b1-4)GlcNAc(b1-2)Man(a1-3)]Man(b1-4)GlcNAc(b1-4)[Fuc(a1-6)]GlcNAc
# How it was run: as §1
# [13] = molecular target: GlcNAc(b1-3)Gal(b1-4)GlcNAc(b1-3)Gal(b1-4)GlcNAc(b1-3)Gal(b1-4)GlcNAc(b1-3)Gal(b1-4)GlcNAc(b1-2)Man(a1-3)[GlcNAc(b1-3)Gal(b1-4)GlcNAc(b1-3)Gal(b1-4)GlcNAc(b1-3)Gal(b1-4)GlcNAc(b1-3)Gal(b1-4)GlcNAc(b1-2)Man(a1-6)]Man(b1-4)GlcNAc(b1-4)GlcNAc
# How it was run: as §1
# [14] = molecular target: GlcNAc(b1-3)Gal(b1-4)GlcNAc(b1-3)Gal(b1-4)GlcNAc(b1-3)Gal(b1-4)GlcNAc(b1-3)Gal(b1-4)GlcNAc(b1-2)Man(a1-3)[GlcNAc(b1-3)Gal(b1-4)GlcNAc(b1-3)Gal(b1-4)GlcNAc(b1-3)Gal(b1-4)GlcNAc(b1-3)Gal(b1-4)GlcNAc(b1-2)Man(a1-6)]Man(b1-4)GlcNAc(b1-4)[Fuc(a1-6)]GlcNAc
# How it was run: as §1
# [15] = molecular target: GlcNAc(b1-3)Gal(b1-4)GlcNAc(b1-3)Gal(b1-4)GlcNAc(b1-3)Gal(b1-4)GlcNAc(b1-3)Gal(b1-4)GlcNAc(b1-2)[GlcNAc(b1-3)Gal(b1-4)GlcNAc(b1-3)Gal(b1-4)GlcNAc(b1-3)Gal(b1-4)GlcNAc(b1-3)Gal(b1-4)GlcNAc(b1-6)]Man(a1-6)[GlcNAc(b1-3)Gal(b1-4)GlcNAc(b1-3)Gal(b1-4)GlcNAc(b1-3)Gal(b1-4)GlcNAc(b1-3)Gal(b1-4)GlcNAc(b1-2)Man(a1-3)]Man(b1-4)GlcNAc(b1-4)[Fuc(a1-6)]GlcNAc
# How it was run: as §1
# [16] = molecular target: GlcNAc(b1-3)Gal(b1-4)GlcNAc(b1-3)Gal(b1-4)GlcNAc(b1-3)GalNAc
# How it was run: as §1
# [17] = molecular target: GlcNAc(b1-3)Gal(b1-4)GlcNAc(b1-3)GalNAc
# How it was run: as §1
# [18] = molecular target: GlcNAc(b1-3)Gal(b1-4)GlcNAc(b1-3)[GlcNAc(b1-3)Gal(b1-4)GlcNAc(b1-3)]GalNAc
# How it was run: as §1
# [19] = molecular target: GlcNAc(b1-3)Gal(b1-4)GlcNAc(b1-6)[Gal(b1-3)]GalNAc
# How it was run: as §1
# [20] = molecular target: GlcNAc(b1-3)Gal(b1-4)GlcNAc(b1-6)[GlcNAc(b1-3)Gal(b1-3)]GalNAc
# How it was run: as §1
# [21] = molecular target: GlcNAc(b1-3)Gal(b1-4)GlcNAc(b1-6)[GlcNAc(b1-3)]Gal(b1-4)GlcNAc
# How it was run: as §1
# GlcNAc(b1-3)GalNAc = molecular target: GlcNAc(b1-3)GalNAc
# How it was run: as §1
# GlcNAc(b1-3)Man = molecular target: GlcNAc(b1-3)Man
# How it was run: as §1
# [22] = molecular target: GlcNAc(b1-3)[GlcNAc(b1-4)][GlcNAc(b1-6)]GlcNAc
# How it was run: as §1
# [23] = molecular target: GlcNAc(b1-3)[GlcNAc(b1-6)]Gal(b1-4)GlcNAc
# How it was run: as §1
# [24] = molecular target: GlcNAc(b1-3)[GlcNAc(b1-6)]GalNAc
# How it was run: as §1
# [25] = molecular target: GlcNAc(b1-4)Gal(b1-4)GlcNAc
# How it was run: as §1
# GlcNAc(b1-4)GlcNAc = molecular target: GlcNAc(b1-4)GlcNAc
# How it was run: as §1
# [26] = molecular target: GlcNAc(b1-4)GlcNAc(b1-4)GlcNAc
# How it was run: as §1
# [27] = molecular target: GlcNAc(b1-4)GlcNAc(b1-4)GlcNAc(b1-4)GlcNAc(b1-4)GlcNAc
# How it was run: as §1
# [28] = molecular target: GlcNAc(b1-4)GlcNAc(b1-4)GlcNAc(b1-4)GlcNAc(b1-4)GlcNAc(b1-4)GlcNAc
# How it was run: as §1
# [29] = molecular target: GlcNAc(b1-4)[GlcNAc(b1-6)]GalNAc
# How it was run: as §1
# [30] = molecular target: GlcNAc(b1-6)Gal(b1-4)GlcNAc
# How it was run: as §1
# GlcNAc(b1-6)GalNAc = molecular target: GlcNAc(b1-6)GalNAc
# How it was run: as §1
# [31] = molecular target: GlcNAc6S(b1-3)Gal(b1-4)GlcNAc
# How it was run: as §1
# Kdn(a2-3)Gal(b1-3)GalNAc = molecular target: Kdn(a2-3)Gal(b1-3)GalNAc
# How it was run: as §1
# Kdn(a2-3)Gal(b1-3)GlcNAc = molecular target: Kdn(a2-3)Gal(b1-3)GlcNAc
# How it was run: as §1
# Kdn(a2-3)Gal(b1-4)Glc = molecular target: Kdn(a2-3)Gal(b1-4)Glc
# How it was run: as §1
# Kdn(a2-3)Gal(b1-4)GlcNAc = molecular target: Kdn(a2-3)Gal(b1-4)GlcNAc
# How it was run: as §1
# [32] = molecular target: Kdn(a2-3)Gal(b1-4)[Fuc(a1-3)]GlcNAc
# How it was run: as §1
# Kdn(a2-6)Gal(b1-4)GlcNAc = molecular target: Kdn(a2-6)Gal(b1-4)GlcNAc
# How it was run: as §1
# [33] = molecular target: Man(a1-2)Man(a1-2)Man(a1-3)Man
# How it was run: as §1
# [34] = molecular target: Man(a1-2)Man(a1-2)Man(a1-6)[Man(a1-3)]Man
# How it was run: as §1
# Man(a1-2)Man(a1-3)Man = molecular target: Man(a1-2)Man(a1-3)Man
# How it was run: as §1
binder,measurement,setting,value
B1,glycan array binding signal (z-score),[1],3.63
same,glycan array binding signal (z-score),GlcNAc(b1-3)Gal(b1-4)Glc,-0.198
same,glycan array binding signal (z-score),[2],0.368
same,glycan array binding signal (z-score),[3],0.29
same,glycan array binding signal (z-score),[4],0.434
same,glycan array binding signal (z-score),[5],0.408
same,glycan array binding signal (z-score),[6],0.873
same,glycan array binding signal (z-score),[7],0.693
same,glycan array binding signal (z-score),[8],1.44
same,glycan array binding signal (z-score),[9],0.624
same,glycan array binding signal (z-score),[10],0.861
same,glycan array binding signal (z-score),[11],2.18
same,glycan array binding signal (z-score),[12],1.02
same,glycan array binding signal (z-score),[13],2.3
same,glycan array binding signal (z-score),[14],2.55
same,glycan array binding signal (z-score),[15],1.3
same,glycan array binding signal (z-score),[16],0.61
same,glycan array binding signal (z-score),[17],0.796
same,glycan array binding signal (z-score),[18],0.552
same,glycan array binding signal (z-score),[19],1.82
same,glycan array binding signal (z-score),[20],1.62
same,glycan array binding signal (z-score),[21],0.989
same,glycan array binding signal (z-score),GlcNAc(b1-3)GalNAc,-0.192
same,glycan array binding signal (z-score),GlcNAc(b1-3)Man,-0.149
same,glycan array binding signal (z-score),[22],-0.291
same,glycan array binding signal (z-score),[23],0.608
same,glycan array binding signal (z-score),[24],-0.273
same,glycan array binding signal (z-score),[25],-0.288
same,glycan array binding signal (z-score),GlcNAc(b1-4)GlcNAc,-0.155
same,glycan array binding signal (z-score),[26],0.796
same,glycan array binding signal (z-score),[27],0.569
same,glycan array binding signal (z-score),[28],-0.151
same,glycan array binding signal (z-score),[29],-0.281
same,glycan array binding signal (z-score),[30],0.916
same,glycan array binding signal (z-score),GlcNAc(b1-6)GalNAc,0.099
same,glycan array binding signal (z-score),[31],-0.272
same,glycan array binding signal (z-score),Kdn(a2-3)Gal(b1-3)GalNAc,0.889
same,glycan array binding signal (z-score),Kdn(a2-3)Gal(b1-3)GlcNAc,-0.277
same,glycan array binding signal (z-score),Kdn(a2-3)Gal(b1-4)Glc,-0.279
same,glycan array binding signal (z-score),Kdn(a2-3)Gal(b1-4)GlcNAc,-0.279
same,glycan array binding signal (z-score),[32],-0.273
same,glycan array binding signal (z-score),Kdn(a2-6)Gal(b1-4)GlcNAc,-0.283
same,glycan array binding signal (z-score),[33],-0.282
same,glycan array binding signal (z-score),[34],-0.289
same,glycan array binding signal (z-score),Man(a1-2)Man(a1-3)Man,-0.269
